Laboratory results taken from PubChem BioAssay AID1768 (National Center for Advancing Translational Sciences (NCATS), 2009).
Hit rate of the full screen: of about 270,000 compounds, about 620 (0.23%) were called active. Calls follow the shape of the dose curve; as a rule, active = well fitted inhibition curve with a large enough effect in the polarisation, with a control signal flat (not every such curve was filed as active); inconclusive = small, poorly fitted or top-dose-only effect, or effect the other way, or a change in a side signal; inactive = no such curve, though single readings can be large or run the other way; the % refers to the polarisation. Inconclusive means that the source gave no clear call. Where the call is inconclusive, the potency comes from a doubtful curve fit. A note “side channel” means that the fit belongs to a control or component signal, not to the main read-out.

target: Menin (Homo sapiens) (UniProt O00255); experiment: qHTS Assay for Inhibitors Targeting the Menin-MLL Interaction in MLL Related Leukemias: Competition With Texas Red Labeled MLL-derived Mutant Peptide; conditions: fluorescence polarization; series mostly up to 61.6 µM
Source text: qHTS Assay for Inhibitors Targeting the Menin-MLL Interaction in MLL Related Leukemias NIH Chemical Genomics Center [NCGC] NIH Molecular Libraries Probe Centers Network [MLPCN] MLPCN Grant: MH084875-01A1 Assay Submitter (PI): Jolanta Grembecka, Tomasz Cierpicki, University of Virginia Translocations of the MLL (Mixed Lineage Leukemia) gene are frequently found in human leukemias affecting both children and adults. Fusion of MLL to one of more than 60 genes results in generation of oncogenic proteins upregulating Hox genes, which are vital to blood cell development. Patients harboring fusion of the MLL gene suffer from aggressive leukemias and respond poorly to available therapies. All of the oncogenic fusion proteins have a preserved N-terminal fragment of MLL that has been identified to interact with menin. It has been recently discovered that association with menin is critical to the leukemogenic activity of the MLL fusion oncoproteins. Selective targeting of the menin-MLL interaction could provide an attractive therapeutic approach to develop novel drugs for MLL-related leukemias. Small molecules blocking the menin-MLL interaction should reverse the oncogenic potential of MLL fusion proteins. We have developed and optimized a fluorescence polarization-based assay for the identification of Menin-MLL inhibitors. The assay was run employing two different MLL-derived peptides. The present assay uses a 12 amino acid peptide labeled with fluorescein at its N-terminus. This peptide consists of the menin high affinity binding motif from MLL and is potently bound by menin. Another peptide with a mutated sequence, labeled with Texas Red, was used in parallel as a less stringent screen for inhibitors.
The Menin protein, the MLL-wild type (w.t.) derived peptide (N-terminal 12 amino acids), the MLL-derived peptide labeled with Texas Red and the MLL-w.t. peptide labeled with Fluorescein were kindly supplied by laboratory of Dr. Jolanta Grembecka, University of Virginia. All protein and peptide solutions were stored in single use aliquots at -80C. The Eu3+ Cyrptate-conjugated mouse monoclonal antibody anti-6 Histidine (Eu3+-AB) and the Streptavidin-XL665 conjugate (XL665) were purchased from Cisbio International (Bedford, MA). All antibody and XL665 conjugate solution stocks were stored in single use aliquots at -20C. The Buffer components for all assays were purchased from Sigma-Aldrich (St. Louis, MO) and Invitrogen (Carlsbad, CA). FP Assay Reagents: 1. FP reaction buffer: 50 mM Tris-HCl pH 7.5, 50 mM NaCl, 1mM DTT. Before use, 0.05% BSA is added. 2. Menin protein, MLL-w.t. labeled with fluorescein, MLL-mutant peptide labeled with texas red. Stored in singe use aliquots at -80C. 3. MLL-w.t. unlabeled peptide as positive control: 10 uM final in FP buffer. FP Assay Procedure: 1. Prepare Menin at 200 nM, MLL-w.t.-fluorescein at 25 nM, and MLL-mutant-texas red at 50 nM mixture in FP buffer. 2. Prepare Menin at 200 nM, MLL-w.t.-fluorescein at 25 nM, MLL-mutant-texas red at 50 nM, and 10 uM MLL-w.t. unlabeled mixture in FP buffer. 3. Prepare MLL-w.t.-fluorescein at 25 nM and MLL-mutant-texas red at 50 nM mixture in FP buffer. 3. Dispense 4 ul per well of reagent in step 1 in columns 2, 4 - 48 in a black 1536 well plate, dispense 4 ul per well of reagents from steps 2 and 3 in columns 1 and 3 respectively. Incubate plate at ambient for 15 minutes. 4. Transfer 23 nl per well of compound to plate and incubate at ambient for 1 hr. 5. Read fluorescence polarization for each label using the PerkinElmer Envision. Envision protocol for fluorescein: FITC FP Dual Enh Mirror, Excitation filter 480, Emission filter (1) P-pol 535, Emission filter (2) S-pol 535 Envision protocol for texas red: FP Dual Enh Mirror, Excitation filter 555, Emission filter (1) P-pol 632, Emission filter (2) S-pol 632
Potency is read from the fitted curve at half-maximal effect; tags tell the direction and shape of the fitted curve or compound fluorescence and quenching.

Sequence of UniProt O00255 (O00255 whole entry, looked up, the tested form may be a part): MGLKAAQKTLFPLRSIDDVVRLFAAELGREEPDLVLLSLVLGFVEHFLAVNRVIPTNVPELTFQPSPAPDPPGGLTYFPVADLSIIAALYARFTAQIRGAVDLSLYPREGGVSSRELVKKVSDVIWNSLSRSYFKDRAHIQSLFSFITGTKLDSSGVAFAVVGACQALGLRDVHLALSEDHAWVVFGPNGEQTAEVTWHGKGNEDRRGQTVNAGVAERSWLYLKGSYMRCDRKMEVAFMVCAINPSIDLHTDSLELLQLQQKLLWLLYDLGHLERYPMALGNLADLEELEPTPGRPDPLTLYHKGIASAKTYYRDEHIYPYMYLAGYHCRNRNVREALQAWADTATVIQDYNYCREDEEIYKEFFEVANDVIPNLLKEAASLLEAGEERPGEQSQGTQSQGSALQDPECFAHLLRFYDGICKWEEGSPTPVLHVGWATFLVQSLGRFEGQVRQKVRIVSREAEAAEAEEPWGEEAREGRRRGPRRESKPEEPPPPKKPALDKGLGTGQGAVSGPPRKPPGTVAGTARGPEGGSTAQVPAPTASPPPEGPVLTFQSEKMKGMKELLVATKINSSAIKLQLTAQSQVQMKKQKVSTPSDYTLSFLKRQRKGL

| SMILES | Potency |
| --- | --- |
| COc1cc(/C=N/Nc2ccc(Cl)c(C(=O)O)c2)ccc1OC(=O)c1ccc(F)cc1 | inconclusive: 11.2 µM [quencher, side channel, partial curve] |
| COc1cc(NS(=O)(=O)c2ccc(NC(=S)NC(=O)c3sc4ccccc4c3Cl)cc2)nc(OC)n1 | inconclusive: 39.8 µM [quencher, side channel, single point] |
| O=C(COc1ccc(Cl)cc1)Nc1cc(NC(=O)COc2ccc(Cl)cc2)cc(C(=O)O)c1 | inconclusive: 25.1 µM [quencher, side channel, partial curve] |
| COc1cc(/C=C2\C(=N)N3N=C(S(C)(=O)=O)SC3=NC2=O)ccc1OC(=O)c1cccs1 | inconclusive: 10 µM [quencher, side channel, partial curve] |
| O=C(Nc1ccc(-c2nc3ccccc3[nH]2)cc1)c1ccccc1NS(=O)(=O)c1ccc(F)cc1 | inconclusive: 25.1 µM [quencher, side channel, partial curve] |
| COc1cc(/C=C2\C(=N)N3N=C(S(C)(=O)=O)SC3=NC2=O)cc(OC)c1OCCOc1ccc(C)cc1 | inconclusive: 12.6 µM [quencher, side channel, partial curve] |
| CCOC(=O)c1sc(N2C(=O)C(O)=C(C(=O)c3ccc(C)o3)C2c2cccc([N+](=O)[O-])c2)nc1C (centres undefined) | inconclusive: 8.91 µM [quencher, side channel, partial curve] |
| O=C1NN(c2ccc(F)c(Cl)c2)C(=O)/C1=C\c1cccc(OC(=O)c2cccs2)c1 | inconclusive: 31.6 µM [quencher, side channel, single point] |
| COc1cc(/C=C2\C(=N)N3N=C(S(C)(=O)=O)SC3=NC2=O)cc(OC)c1OCCOc1cccc(C)c1 | inconclusive: 7.08 µM [quencher, side channel, partial curve] |
